A collection of fitness landscapes (doi:10.1126/science.1257360)
This is one part of the list.

B1: PhoQ; a variant is named by its letters at X, in order, P23837 (parent)
chain: MKKLLRLFFPLSLRVRFLLATAAVVLVLSLAYGMVALIGYSVSFDKTTFRLLRGESNLFYTLAKWENNKLHVELPENIDKQSPTMTLIYDENGQLLWAQRDVPWLMKMIQPDWLKSNGFHEIEADVNDTSLLLSGDHSIQQQLQEVREDDDDAEMTHSVAVNVYPATSRMPKLTIVVVDTIPVELKSSYMVWSWFIYVLSANLLLVIPLLWVAAWWSLRPIEALAKEVRELEEHNRELLNPATTRELTSLVRNLNRLLKSERERYDKYRTTLTDLTHSLKTPLXXLQXXLRSLRSEKMSVSDAEPVMLEQISRISQQIGYYLHRASMRGGTLLSRELHPVAPLLDNLTSALNKVYQRKGVNISLDISPEISFVGEQNDFVEVMGNVLDNACKYCLEFVEISARQTDEHLYIVVEDDGPGIPLSKREVIFDRGQRVDTLRPGQGVGLAVAREITEQYEGKIVAGESMLGGARMEVIFGRQHSAPKDE

Variants of: B1
Assay: enrichment ratio after two sorts for PhoP signalling (ratio (wild type AVST 3.29)); higher = more functional
Conditions: with PhoP (E. coli)

Row | Variant | enrichment ratio
1 | LWTL | ≤ 0.25
2 | PIVD | ≤ 0.25
3 | MVYS | ≤ 0.25
4 | NMKM | ≤ 0.25
5 | KQSM | ≤ 0.25
6 | PALC | ≤ 0.25
7 | NDRC | ≤ 0.25
8 | FLRL | ≤ 0.25
9 | GFYT | ≤ 0.25
10 | IIWE | ≤ 0.25
11 | WFHF | ≤ 0.25
12 | GSIS | 7.27
13 | MGDH | ≤ 0.25
14 | YYDF | ≤ 0.25
15 | PTCK | ≤ 0.25
16 | NHEG | ≤ 0.25
17 | YYEP | ≤ 0.25
18 | MCPI | ≤ 0.25
19 | RCKI | ≤ 0.25
20 | TNYY | ≤ 0.25
21 | QGYP | ≤ 0.25
22 | THYH | ≤ 0.25
23 | GHIM | ≤ 0.25
24 | LMLG | ≤ 0.25

Row | Variant | enrichment ratio
25 | RRFE | ≤ 0.25
26 | PSAT | ≤ 0.25
27 | NAFW | ≤ 0.25
28 | KGSV | ≤ 0.25
29 | YVIA | ≤ 0.25
30 | FCLK | 1.84
31 | VPGW | ≤ 0.25
32 | DCHQ | ≤ 0.25
33 | APFN | ≤ 0.25
34 | MYME | ≤ 0.25
35 | SAEW | ≤ 0.25
36 | RHKL | ≤ 0.25
37 | HVRG | ≤ 0.25
38 | HSHW | ≤ 0.25
39 | EPNR | ≤ 0.25
40 | RCRG | ≤ 0.25
41 | TPMG | ≤ 0.25
42 | WMCV | ≤ 0.25
43 | HSFD | ≤ 0.25
44 | QQSN | ≤ 0.25
45 | GQDK | ≤ 0.25
46 | EQCS | ≤ 0.25
47 | KAKF | ≤ 0.25
48 | QPFT | ≤ 0.25

Row | Variant | enrichment ratio
49 | ESAR | ≤ 0.25
50 | KSRL | ≤ 0.25
51 | ACGI | 10.9
52 | MVIC | ≤ 0.25
53 | YFCI | ≤ 0.25
54 | SVNQ | ≤ 0.25
55 | MAKM | ≤ 0.25
56 | VYNF | ≤ 0.25
57 | GWMD | ≤ 0.25
58 | TFKC | ≤ 0.25
59 | KKSV | ≤ 0.25
60 | STVY | 8.93
61 | HKQE | ≤ 0.25
62 | QATG | ≤ 0.25
63 | KGCW | ≤ 0.25
64 | DKRF | ≤ 0.25
65 | MFGQ | ≤ 0.25
66 | SYRQ | ≤ 0.25
67 | SDTP | ≤ 0.25
68 | AADH | ≤ 0.25
69 | LRGP | ≤ 0.25
70 | GGDA | ≤ 0.25
71 | TKSE | 1.37
72 | VQNF | ≤ 0.25

Row | Variant | enrichment ratio
73 | GDFG | ≤ 0.25
74 | MKKG | ≤ 0.25
75 | GPDH | ≤ 0.25
76 | NIHC | ≤ 0.25
77 | PEPT | ≤ 0.25
78 | LSMV | 7.72
79 | HHAQ | ≤ 0.25
80 | HGTC | ≤ 0.25
81 | QYCT | ≤ 0.25
82 | GTNG | ≤ 0.25
83 | LVTG | ≤ 0.25
84 | TPYR | ≤ 0.25
85 | NRCL | 0.323
86 | IQKP | ≤ 0.25
87 | DFAN | ≤ 0.25
88 | ICFC | ≤ 0.25
89 | YTKD | ≤ 0.25
90 | AQVQ | 10.3
91 | CIID | ≤ 0.25
92 | QCGS | ≤ 0.25
93 | VYMA | ≤ 0.25
94 | IPLT | ≤ 0.25
95 | SDKG | ≤ 0.25
96 | HEDH | ≤ 0.25

Row | Variant | enrichment ratio
97 | GCLA | 6.8
98 | FPYP | ≤ 0.25
99 | VVDP | ≤ 0.25
100 | GEPW | ≤ 0.25
101 | YEGH | ≤ 0.25
102 | EGQR | ≤ 0.25
103 | FEYY | ≤ 0.25
104 | SFIR | ≤ 0.25
105 | HAFQ | ≤ 0.25
106 | GDYG | ≤ 0.25
107 | PTNT | ≤ 0.25
108 | MMGH | ≤ 0.25
109 | HKGR | ≤ 0.25
110 | DWFD | ≤ 0.25
111 | YQTL | ≤ 0.25
112 | QLIG | ≤ 0.25
113 | PING | ≤ 0.25
114 | EGHP | ≤ 0.25
115 | PPPS | ≤ 0.25
116 | TQFE | 2.17
117 | QEGC | ≤ 0.25
118 | SQDY | ≤ 0.25
119 | VTEV | ≤ 0.25
120 | LTRK | ≤ 0.25

Row | Variant | enrichment ratio
121 | TAQK | 6.87
122 | FKPQ | ≤ 0.25
123 | LLCV | ≤ 0.25
124 | LPMQ | ≤ 0.25
125 | VYSS | ≤ 0.25
126 | WRCN | ≤ 0.25
127 | LYKN | ≤ 0.25
128 | QGVC | ≤ 0.25
129 | ITSY | ≤ 0.25
130 | ACCS | 2.23
131 | TCAK | 11.2
132 | KIQK | ≤ 0.25
133 | YQNS | ≤ 0.25
134 | YMAQ | ≤ 0.25
135 | IKDL | ≤ 0.25
136 | PGTW | ≤ 0.25
137 | ESWT | ≤ 0.25
138 | RCCP | ≤ 0.25
139 | MPYN | ≤ 0.25
140 | EMAG | ≤ 0.25
141 | LMWN | ≤ 0.25
142 | TDSK | ≤ 0.25
143 | PDHA | ≤ 0.25
144 | FKIG | ≤ 0.25

Row | Variant | enrichment ratio
145 | DVAH | ≤ 0.25
146 | IYII | ≤ 0.25
147 | YKPF | ≤ 0.25
148 | CFCL | ≤ 0.25
149 | DKGT | ≤ 0.25
150 | NFLH | ≤ 0.25
151 | PDTG | ≤ 0.25
152 | AYLL | ≤ 0.25
153 | FDWG | ≤ 0.25
154 | NRIM | ≤ 0.25
155 | ATHK | ≤ 0.25
156 | HHYF | ≤ 0.25
157 | APRV | ≤ 0.25
158 | PMYQ | ≤ 0.25
159 | DTFS | ≤ 0.25
160 | SCVD | ≤ 0.25
161 | KIQM | ≤ 0.25
162 | YPTT | ≤ 0.25
163 | NMNV | ≤ 0.25
164 | ILGT | ≤ 0.25
165 | SGRD | ≤ 0.25
166 | VHRY | ≤ 0.25
167 | RAWV | ≤ 0.25
168 | DSRW | ≤ 0.25

Row | Variant | enrichment ratio
169 | WVWD | ≤ 0.25
170 | TTHS | 8.9
171 | ASTP | ≤ 0.25
172 | IHHS | ≤ 0.25
173 | NYVA | ≤ 0.25
174 | FGWA | ≤ 0.25
175 | PKHF | ≤ 0.25
176 | LILY | ≤ 0.25
177 | TETN | 24.4
178 | FPRF | ≤ 0.25
179 | SHQT | ≤ 0.25
180 | DRTL | ≤ 0.25
181 | YCKH | ≤ 0.25
182 | SALF | 9.67
183 | LDWQ | ≤ 0.25
184 | SSTD | ≤ 0.25
185 | FMAL | ≤ 0.25
186 | TNCQ | ≤ 0.25
187 | QQWC | ≤ 0.25
188 | KRQP | ≤ 0.25
189 | RYFG | ≤ 0.25
190 | VIIW | ≤ 0.25
191 | VYHY | ≤ 0.25
192 | HWNV | ≤ 0.25

Row | Variant | enrichment ratio
193 | KLGQ | ≤ 0.25
194 | ICYR | ≤ 0.25
195 | AERG | ≤ 0.25
196 | RFFG | 0.794
197 | QQFM | 4.13
198 | ANVV | 11.6
199 | TPTS | ≤ 0.25
200 | STIQ | 14
201 | SPQQ | ≤ 0.25
202 | MKHT | ≤ 0.25
203 | KHGN | ≤ 0.25
204 | YALC | 3.77
205 | IYWI | ≤ 0.25
206 | LTWY | 2.54
207 | NLGK | ≤ 0.25
208 | IYEW | ≤ 0.25
209 | QHHR | ≤ 0.25
210 | NTKV | ≤ 0.25
211 | LRFG | ≤ 0.25
212 | VKAW | ≤ 0.25
213 | KHQP | ≤ 0.25
214 | PFNM | ≤ 0.25
215 | MDGT | ≤ 0.25
216 | AWPG | ≤ 0.25

Row | Variant | enrichment ratio
217 | YMTW | ≤ 0.25
218 | VAYQ | ≤ 0.25
219 | LGRC | ≤ 0.25
220 | FFNF | ≤ 0.25
221 | RTFE | ≤ 0.25
222 | ERWA | ≤ 0.25
223 | EIAD | ≤ 0.25
224 | PNNL | ≤ 0.25
225 | HKHR | ≤ 0.25
226 | NPLY | ≤ 0.25
227 | WPET | ≤ 0.25
228 | FSRA | ≤ 0.25
229 | QMAH | ≤ 0.25
230 | VMAK | ≤ 0.25
231 | MYDP | ≤ 0.25
232 | SCIL | 0.31
233 | RYRP | ≤ 0.25
234 | MKRK | ≤ 0.25
235 | HMLI | ≤ 0.25
236 | YPKN | ≤ 0.25
237 | NSPH | ≤ 0.25
238 | MVSP | ≤ 0.25
239 | ISTC | ≤ 0.25
240 | FQLA | ≤ 0.25

Row | Variant | enrichment ratio
241 | NEGS | ≤ 0.25
242 | ETDC | ≤ 0.25
243 | YWLN | ≤ 0.25
244 | HLAN | ≤ 0.25
245 | EMEP | ≤ 0.25
246 | IQFG | ≤ 0.25
247 | WDHH | ≤ 0.25
248 | WFKI | ≤ 0.25
249 | DNYF | ≤ 0.25
250 | YELK | ≤ 0.25
251 | HWNM | ≤ 0.25
252 | FQLD | 0.917
253 | DLGS | ≤ 0.25
254 | HFHC | ≤ 0.25
255 | WDPI | ≤ 0.25
256 | MKMK | ≤ 0.25
257 | SIHG | ≤ 0.25
258 | DMYM | ≤ 0.25
259 | YASQ | ≤ 0.25
260 | DGAR | ≤ 0.25
261 | LCIK | ≤ 0.25
262 | NAAS | ≤ 0.25
263 | KIQV | ≤ 0.25
264 | KQDM | ≤ 0.25

Row | Variant | enrichment ratio
265 | HEEA | ≤ 0.25
266 | SIGM | 9.86
267 | NKCN | ≤ 0.25
268 | LNND | ≤ 0.25
269 | EDRY | ≤ 0.25
270 | GRFC | ≤ 0.25
271 | KICY | ≤ 0.25
272 | ENHH | ≤ 0.25
273 | MQCD | 0.989
274 | HRES | ≤ 0.25
275 | SQYG | ≤ 0.25
276 | YGCA | 0.382
277 | YDSA | ≤ 0.25
278 | LMDN | ≤ 0.25
279 | QNLA | ≤ 0.25
280 | GQWH | ≤ 0.25
281 | RIDY | ≤ 0.25
282 | GTEH | ≤ 0.25
283 | MGAP | ≤ 0.25
284 | SACT | 14
285 | YDMM | ≤ 0.25
286 | FLWQ | ≤ 0.25
287 | EHST | ≤ 0.25
288 | NFSL | ≤ 0.25

Row | Variant | enrichment ratio
289 | GSGW | ≤ 0.25
290 | FPLM | ≤ 0.25
291 | AEGL | 1.47
292 | AFQL | ≤ 0.25
293 | FWKK | ≤ 0.25
294 | DDCD | ≤ 0.25
295 | QTFR | ≤ 0.25
296 | EFFM | ≤ 0.25
297 | ALIP | ≤ 0.25
298 | YAFD | ≤ 0.25
299 | VAIQ | ≤ 0.25
300 | DWLT | ≤ 0.25
301 | KHGY | ≤ 0.25
302 | QMNI | 9.75
303 | WQGS | ≤ 0.25
304 | WWYC | ≤ 0.25
305 | SRRP | ≤ 0.25
306 | AYWY | ≤ 0.25
